Test results: the supplement of paper PMC7125110
± gives the standard error. This sample is rich in variants without activity.

B1: glmS ribozyme (parent)
chain: AUAAAAGCGCCAGAACUACAGAAAUGUAGUUGACGAGGAGGAGGUUUAUCGAAUUUUCGGCGGAUGCCUCCAAA

Legend:
Conditions in all cases: with glucosamine-6-phosphate
glucosamine-6-phosphate [1] = variants of: B1; assay: self-cleavage kobs at 40 uM GlcN6P; higher = faster cleavage; RNA array
In short: (§1)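 Tiles bearing barcoded ribozyme variants, transcribed in situ by E. coli RNA polymerase on sequenced MiSeq chips, were imaged over ~14 h at 37 °C using a hybridised Cy3 probe. Glucosamine-6-phosphate was supplied at 40 μM to 10 mM in HEPES/KCl/Mg(OAc)2 buffer. kobs came from one- or two-exponential decay fits to normalised per-tile medians, and weighted Michaelis–Menten fits then provided kcat and KM.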

glucosamine-6-phosphate [2] = variants of: B1; assay: self-cleavage kobs at 640 uM GlcN6P; higher = faster cleavage; RNA array
In short: as §1

glucosamine-6-phosphate [3] = variants of: B1; assay: self-cleavage kobs at 160 uM GlcN6P; higher = faster cleavage; RNA array
In short: as §1

glucosamine-6-phosphate [4] = variants of: B1; assay: self-cleavage kobs at 10000 uM GlcN6P; higher = faster cleavage; RNA array
In short: as §1

glucosamine-6-phosphate [5] = variants of: B1; assay: self-cleavage kobs at 2500 uM GlcN6P; higher = faster cleavage; RNA array
In short: as §1

Variant	self-cleavage kobs at 40 uM GlcN6P (glucosamine-6-phosphate [1]) [s⁻¹]	self-cleavage kobs at 640 uM GlcN6P (glucosamine-6-phosphate [2]) [s⁻¹]	self-cleavage kobs at 160 uM GlcN6P (glucosamine-6-phosphate [3]) [s⁻¹]	self-cleavage kobs at 10000 uM GlcN6P (glucosamine-6-phosphate [4]) [s⁻¹]	self-cleavage kobs at 2500 uM GlcN6P (glucosamine-6-phosphate [5]) [s⁻¹]
G43U C50A	< 1e-05	< 1e-05	< 1e-05	< 1e-05	–
G43U G66U	< 1e-05	–	< 1e-05	< 1e-05	–
G43U U45C U46A U55C	< 1e-05	–	–	–	–
G44A G59A C61U	< 1e-05	< 1e-05	–	< 1e-05	< 1e-05
G44A U46C	< 1e-05	< 1e-05	–	–	< 1e-05
G44A U57A	< 1e-05	< 1e-05	–	–	< 1e-05
G44C G51U C67G U69A C71G	< 1e-05	–	–	–	–
G44C U49C	< 1e-05	–	–	–	–
G44C U54A U57A U65G U69G	< 1e-05	–	–	< 1e-05	–
G44U U65A	< 1e-05	–	–	–	–
U45A C61U	< 1e-05	–	–	–	–
U45C A52C U65G	< 1e-05	–	–	< 1e-05	–
U45C A64C	< 1e-05	< 1e-05	< 1e-05	–	–
U45C C68A	< 1e-05	–	–	–	–
U45G C58U	< 1e-05	–	–	–	–
U45G G63U	< 1e-05	–	–	–	–
U45G U69A	0.000333 ± 8.4e-05	–	–	0.000362 ± 7.9e-05	0.000589 ± 0.00025
U46A G63A	< 1e-05	–	–	< 1e-05	–
U46A U47C	5.61e-05 ± 1.2e-05	–	–	–	–
U46A U69A	< 1e-05	–	–	–	–
U46C G51A	< 1e-05	< 1e-05	< 1e-05	< 1e-05	< 1e-05
U47A A53C	0.000173 ± 2.9e-05	0.00103 ± 0.00018	0.000506 ± 7.8e-05	0.00663 ± 0.0016	0.00465 ± 0.001
U47A C67U	0.00025 ± 3.1e-05	0.003 ± 0.00062	0.000428 ± 7.1e-05	0.00638 ± 0.00092	0.00497 ± 0.0016
U47A U54G	0.0005 ± 0.00016	0.0103 ± 0.0034	–	–	0.00345 ± 0.0016
U47A U57G C58U C70U	< 1e-05	–	–	–	–

Variant	self-cleavage kobs at 40 uM GlcN6P (glucosamine-6-phosphate [1]) [s⁻¹]	self-cleavage kobs at 640 uM GlcN6P (glucosamine-6-phosphate [2]) [s⁻¹]	self-cleavage kobs at 160 uM GlcN6P (glucosamine-6-phosphate [3]) [s⁻¹]	self-cleavage kobs at 10000 uM GlcN6P (glucosamine-6-phosphate [4]) [s⁻¹]	self-cleavage kobs at 2500 uM GlcN6P (glucosamine-6-phosphate [5]) [s⁻¹]
U47C C61A	< 1e-05	–	< 1e-05	< 1e-05	< 1e-05
A48C A53U	< 1e-05	4.84e-05 ± 1.1e-05	–	0.000191 ± 3e-05	0.000131 ± 2e-05
A48C C50U G63A	< 1e-05	–	–	–	–
A48G A64G	< 1e-05	–	–	–	–
A48G C71A	< 1e-05	–	–	–	–
A48G G62U	< 1e-05	–	–	< 1e-05	–
A48U C61G	< 1e-05	< 1e-05	< 1e-05	< 1e-05	< 1e-05
U49A A53U C61U C71U	< 1e-05	–	–	< 1e-05	–
U49A C68A	< 1e-05	–	–	< 1e-05	–
U49C A52C	< 1e-05	–	< 1e-05	–	< 1e-05
U49C C67U	< 1e-05	< 1e-05	–	< 1e-05	–
U49C C71U	< 1e-05	–	–	< 1e-05	–
U49G A52C	< 1e-05	< 1e-05	< 1e-05	< 1e-05	–
U49G A64C	< 1e-05	< 1e-05	–	–	< 1e-05
C50A G60U C68G	< 1e-05	–	–	–	–
C50A G62A	< 1e-05	< 1e-05	–	–	–
C50U A52U	< 1e-05	< 1e-05	< 1e-05	< 1e-05	< 1e-05
C50U U65C	< 1e-05	< 1e-05	–	< 1e-05	–
G51A G59C	< 1e-05	< 1e-05	< 1e-05	–	< 1e-05
G51C A52U	< 1e-05	–	–	–	–
G51C C71G	< 1e-05	–	–	–	–
G51U G59C	< 1e-05	–	–	< 1e-05	< 1e-05
G51U G63U	< 1e-05	< 1e-05	< 1e-05	< 1e-05	–
A52C C71A	< 1e-05	–	–	–	–
